# Test results: the supplement of paper PMC4166925
# ± gives the standard deviation of the averaged measurements. In all, about 33,000 sequences were measured (“E-score (dimensionless, -0.5 to 0.5)”: median about -0.046, highest 2% from about 0.36 on). This is one part of the list.
# System: T1, SpTbr T-box DNA-binding domain (GST fusion)
# T1 sequence: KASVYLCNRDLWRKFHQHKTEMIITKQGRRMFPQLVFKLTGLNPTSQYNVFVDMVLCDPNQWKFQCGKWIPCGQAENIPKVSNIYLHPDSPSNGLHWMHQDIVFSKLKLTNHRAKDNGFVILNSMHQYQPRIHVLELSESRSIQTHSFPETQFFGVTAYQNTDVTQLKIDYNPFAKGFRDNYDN
# Assay: PBM E-score of 8-mer (E-score (dimensionless, -0.5 to 0.5)); Tbr is Tbrain of the sea star Patiria miniata (Pm) or the sea urchin Strongylocentrotus purpuratus (Sp); higher = stronger binding preference; most listed sequences are background and not binding sites
# Settings: the construct has about 5 more residues each side
# Procedure, shortened: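 Expression of GST-fused Tbr T-box DNA-binding domains, each holding the full T-box plus roughly five flanking residues, was carried out in BL21 E. coli at 20 °C, with purification by glutathione affinity chromatography. Universal Agilent arrays made double-stranded by primer extension were incubated with the protein at 200 nM in PBS (pH 7.5), then scanned and quantified. All ungapped 8-mers were scored from probe intensities, and each received an enrichment E-score from the Universal PBM Analysis Suite, averaged over duplicate arrays.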
row,Sequence,PBM E-score of 8-mer
1,CTTTGGTA,-0.023 ± 0.017
2,AGGAACGG,0.0852 ± 0.053
3,CTTAAAGA,-0.0599 ± 0.027
4,CATAACAG,0.000675 ± 0.037
5,GAGTGTCA,0.4478 ± 0.0016
6,AGAGTGCA,0.127 ± 0.04
7,TAGACGAA,-0.149 ± 0.054
8,AAGAACCC,-0.0115 ± 0.01
9,ACCATAAA,0.045 ± 0.039
10,CCCAATAC,-0.222 ± 0.014
11,ATTTACCC,-0.058 ± 0.013
12,GGAGTGTA,0.0111 ± 0.00078
13,ATTTCTAC,-0.132 ± 0.011
14,ACTACTTG,0.154 ± 0.023
15,GCACGTGA,0.224 ± 0.057
16,AACTTAAC,0.0557 ± 0.049
17,CAATCCCG,-0.0318 ± 0.046
18,GAAGCACA,-0.162 ± 0.028
19,ATACCGTG,0.0874 ± 0.021
20,CCCCGGGG,-0.33 ± 0.023
21,ACCTGGGC,-0.0609 ± 0.0078
22,GGTTGAAC,-0.164 ± 0.024
23,CATTAACG,0.135 ± 0.043
24,AAGAATCA,0.0277 ± 0.0083
25,GCGTGTCC,0.196 ± 0.035

row,Sequence,PBM E-score of 8-mer
1,ACACATGT,0.345 ± 0.016
2,CATTCAGA,0.0843 ± 0.014
3,ATCCGCTA,0.0409 ± 0.019
4,ATTAAGAC,-0.0771 ± 0.015
5,CCTGATTC,-0.134 ± 0.041
6,ATATCACG,0.223 ± 0.014
7,CGCATAAA,-0.128 ± 0.0037
8,GCACTCAA,0.0216 ± 0.026
9,ACCCCGGA,0.0394 ± 0.01
10,TGTACACA,0.093475 ± 3.5e-05
11,AAAAGGCA,0.054 ± 0.052
12,AAAGTGCT,0.306 ± 0.033
13,AGCACCGA,-0.094 ± 0.013
14,ATACTGGA,-0.0359 ± 0.026
15,AAAGGATT,-0.147 ± 0.0067
16,CAACCACA,0.032 ± 0.086
17,CTGACAAA,0.0345 ± 0.084
18,AAGGCAAT,-0.107 ± 0.068
19,ATAGCCTG,-0.136 ± 0.045
20,AAGCCCAG,-0.329 ± 0.076
21,GGTGTTGA,0.4631 ± 0.0038
22,CGCCCCGC,0.0926 ± 0.031
23,ACATAGAC,-0.2041 ± 0.0013
24,GACTGCAA,0.0127 ± 0.067
25,ACACATCC,0.388 ± 0.024

row,Sequence,PBM E-score of 8-mer
1,AACGTACT,-0.194 ± 0.03
2,TCCAATAA,-0.0798 ± 0.025
3,CTAGAGTC,-0.125 ± 0.016
4,AGAGACTC,-0.276 ± 0.031
5,CGAGTGCG,0.25 ± 0.026
6,AAGGCATC,-0.0866 ± 0.0022
7,CTAAAGCA,-0.0564 ± 0.041
8,ATGTATCG,0.0705 ± 0.031
9,ATCAGGTG,0.386 ± 0.015
10,GTGTAAAC,0.367 ± 0.02
11,ACCGGGGA,-0.298 ± 0.018
12,ACACTGCA,0.209 ± 0.011
13,ACGTTTGG,-0.0682 ± 0.09
14,AGCCAACC,-0.0668 ± 0.029
15,AAGACGAC,-0.0135 ± 0.083
16,TGAGATCA,0.191 ± 0.018
17,CTTCTTCC,-0.00617 ± 0.11
18,ACCAGAAC,-0.153 ± 0.031
19,AGAAAGGA,-0.196 ± 0.056
20,ATTTAACA,0.229 ± 0.08
21,AATCAAAT,-0.219 ± 0.029
22,CGCGTCAG,0.303 ± 0.038
23,GAGAGGAA,-0.0238 ± 0.039
24,ATACTCAT,-0.14 ± 0.046
25,CCAATTCC,0.0102 ± 0.0014

row,Sequence,PBM E-score of 8-mer
1,ATTATCGC,0.295 ± 0.0048
2,CGGAAAAA,0.019 ± 0.025
3,AACTGTGG,0.128 ± 0.0018
4,AGGCAGGC,-0.0653 ± 0.1
5,ATGGACAA,0.101 ± 0.003
6,AGGGTATG,-0.302 ± 0.025
7,GATACACA,0.0102 ± 0.027
8,CATTTTGG,-0.276 ± 0.12
9,CTAAATCA,-0.0274 ± 0.098
10,AGAAATAG,-0.0874 ± 0.0029
11,GTACCCGA,-0.24 ± 0.054
12,ACACTGCT,0.149 ± 0.023
13,CTCTCCGA,-0.103 ± 0.059
14,TGCCAGAA,-0.0821 ± 0.012
15,GAGAAGAA,-0.0422 ± 0.057
16,ACTGAGAG,-0.16 ± 0.035
17,AGCGATTG,0.0168 ± 0.0089
18,ACTTCTAA,0.0716 ± 0.013
19,GCCCGTCC,-0.216 ± 0.0065
20,TACTTGCA,-0.06 ± 0.025
21,ACGGTACG,-0.16 ± 0.068
22,CCTACATA,-0.114 ± 0.028
23,GGGTCTGA,-0.2018 ± 0.0014
24,AGTCGAAA,-0.0713 ± 0.052
25,AGGTTCTG,-0.179 ± 0.0082

row,Sequence,PBM E-score of 8-mer
1,GTGGCATA,-0.0123 ± 0.0012
2,TAGTTTCA,-0.043 ± 0.051
3,GTAAATAA,-0.0344 ± 0.025
4,GACAGTCA,0.1862 ± 0.0017
5,AGTAGCTC,-0.318 ± 0.039
6,ATATGCCG,-0.117 ± 0.028
7,TACATGAA,-0.0791 ± 0.13
8,CACCTCGG,0.402 ± 0.0072
9,ACTGGACT,-0.0864 ± 0.036
10,GGAACTCC,-0.209 ± 0.028
11,AGGACATA,-0.122 ± 0.057
12,GACATAAA,0.143 ± 0.057
13,GTCCTGTA,-0.2 ± 0.034
14,GTATCCTA,-0.111 ± 0.11
15,CACAGACG,0.0964 ± 0.037
16,CCGGGTGA,0.0209 ± 0.0016
17,CTCGGCAG,-0.0429 ± 0.015
18,AAGTGCGT,0.203 ± 0.018
19,AAGCACCT,0.118 ± 0.085
20,GCATAAAA,-0.232 ± 0.011
21,CACCTGCG,0.425 ± 0.0075
22,ATATTGGC,0.12 ± 0.019
23,ACTCGTGA,0.305 ± 0.019
24,CGTCCCGC,0.187 ± 0.038
25,AACGTTCG,0.109 ± 0.011

row,Sequence,PBM E-score of 8-mer
1,AAGATAGC,-0.107 ± 0.016
2,AAGCTTTG,-0.155 ± 0.002
3,ATGTGAGC,0.06995 ± 0.00026
4,TCAGGTCA,-0.146 ± 0.066
5,GAAAGAGA,-0.0687 ± 0.061
6,ACCGTCCC,-0.187 ± 0.059
7,CTTCTAGA,-0.105 ± 0.0086
8,ATCCGCTG,-0.0684 ± 0.052
9,AACTTCCG,-0.221 ± 0.037
10,ACTTTAAT,-0.142 ± 0.052
11,ATGCAGTA,-0.154 ± 0.056
12,ACGGAGCG,-0.0434 ± 0.047
13,AACAGAAT,-0.00744 ± 0.019
14,GTATTCAA,-0.3149 ± 0.00081
15,GACCAAAC,-0.124 ± 0.015
16,TAGTCCGA,-0.0544 ± 0.027
17,GCTCAGCA,-0.114 ± 0.06
18,AAGTATTA,-0.102 ± 0.045
19,ACACCCGC,0.3794 ± 0.0031
20,ACCCCTAC,-0.0394 ± 0.064
21,AATAGGTG,0.374 ± 0.03
22,CTTGGACA,-0.0374 ± 0.035
23,AGCCCTAT,-0.284 ± 0.032
24,CTTACACC,0.392 ± 0.025
25,AAAAACAT,-0.203 ± 0.042

row,Sequence,PBM E-score of 8-mer
1,GAAACTTA,-0.0724 ± 0.023
2,CGTAGAAA,-0.208 ± 0.012
3,AGTTTTTA,-0.111 ± 0.059
4,AGGAAGCA,-0.226 ± 0.058
5,AGATTCAT,-0.178 ± 0.05
6,CAGTCGCC,-0.0981 ± 0.062
7,TGAACCCA,-0.186 ± 0.024
8,CCTGAGGA,-0.0654 ± 0.058
9,CAAGTGGA,0.0541 ± 0.045
10,AAACTTTA,-0.0816 ± 0.066
11,AGCCGGAT,-0.157 ± 0.0031
12,AATCTGGT,-0.19833 ± 0.00011
13,CACAACAA,0.285 ± 0.028
14,CGTACTAC,-0.167 ± 0.054
15,ATAGGCTG,0.0188 ± 0.056
16,AGTCAGGG,-0.263 ± 0.069
17,AGCCTTGC,-0.034 ± 0.043
18,ACTATGTC,-0.0247 ± 0.07
19,GCTTCGAC,-0.21 ± 0.021
20,ACGTAGGG,-0.127 ± 0.051
21,CGAGCAGC,-0.092 ± 0.072
22,GAGGATCA,-0.0774 ± 0.03
